From the supplement of paper PMC4967469
The IC50 comes from the fitted curve, where viability falls to half of the control; a fit beyond the top or the lowest dose is shown as a bound at that dose. For AUC the same curve is integrated over the 256-fold range of doses and scaled to a fraction; it is 1 without any effect and falls as sensitivity rises. For some assays here: A top dose marked as inferred comes from the curve model; the source does not state it. For some assays here: An entry number marks a drug with two screens in the source, which often give different values.

Experiments:
Assay in all cases: Viability of human cancer cell lines after 72 h of drug (GDSC screen)
[1] = compound: CC/C(=C(\c1ccccc1)c1ccc(OCCN(C)C)cc1)c1ccccc1 [Tamoxifen]; conditions: top dose 5 µM
Method: (§1)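 Human cancer cell lines in 384-well plates, medium with 10% serum, drug for 72 h over a 256-fold dose range (nine 2-fold or five 4-fold steps up to the top dose). Adherent lines were fixed and stained with the nucleic acid dye Syto60, suspension lines read with resazurin; signal relative to control wells, capped at 0 and 100%. One two-parameter sigmoid per drug and line, fitted in a mixed model over all curves with the slope shared within a line.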

[2] = compound: CCCC(=O)OCc1ccc(OC(=O)/C=C(C)/C=C/C=C(C)/C=C/C2=C(C)CCCC2(C)C)cc1 [VNLG/124]; conditions: top dose 5.12 µM; top dose inferred
Method: as §1

[3] = compound: CN(NC(=O)CC(=O)NN(C)C(=S)c1ccccc1)C(=S)c1ccccc1 [Elesclomol]; conditions: top dose 0.2 µM; top dose inferred
Method: as §1

[4] = compound: COc1cc(N2CCC(C(N)=O)CC2)ccc1Nc1nc(N)c(Cl)c(Nc2ccccc2S(=O)(=O)C(C)C)n1 [HG-5-88-01]; conditions: top dose 10 µM; top dose inferred
Method: as §1

[5] = compound: Cc1c(N)nc([C@H](CC(N)=O)NC[C@H](N)C(N)=O)nc1C(=O)N[C@H](C(=O)N[C@H](C)[C@@H](O)[C@H](C)C(=O)N[C@H](C(=O)NCCc1nc(-c2nc(C(=O)NCCC[S+](C)C)cs2)cs1)[C@@H](C)O)[C@@H](OC1OC(CO)C(O)C(O)C1OC1OC(CO)C(O)C(OC(N)=O)C1O)c1cnc[nH]1 [Bleomycin]
Method: as §1

[6] = compound: Cc1ccc(NC(=O)c2ccc(CN3CCN(C)CC3)cc2)cc1Nc1nc(-c2cccnc2)cs1 [Masitinib]; conditions: top dose 20 µM
Method: as §1

[7] = compound: O=C(/C=C/c1ccc(CN(CCO)CCc2c[nH]c3ccccc23)cc1)NO [LAQ824]; conditions: top dose 1.024 µM; top dose inferred
Method: as §1

[8] = compound: O=C(Nc1ccc(OC(F)(F)F)cc1)c1sccc1NCc1ccnc2ccccc12 [OSI-930]; conditions: top dose 10.24 µM
Method: as §1

[9] = compound: O=C(Nc1cccc(Nc2ncc(Br)c(NCCc3cnc[nH]3)n2)c1)N1CCCC1 [BX-912]; conditions: top dose 10.24 µM; top dose inferred
Method: as §1

[10] = compound: O=S(=O)(O)c1ccc2cc(N=Nc3cc(S(=O)(=O)O)c4cccnc4c3O)ccc2c1 [NSC-87877]; conditions: top dose 16 µM; top dose inferred
Method: as §1

[11] = top dose 50 µM, screen: GDSC drug entry 1378, top dose inferred
[12] = top dose 64 µM, screen: GDSC drug entry 190

Cell Line	AUC [1]	IC50 [1]	AUC [2]	IC50 [2]	AUC [3]	IC50 [3]	AUC [4]	IC50 [4]	AUC [5, 11]	IC50 [5, 11]	AUC [5, 12]	IC50 [5, 12]	AUC [6]	IC50 [6]	AUC [7]	IC50 [7]	AUC [8]	IC50 [8]	AUC [9]	IC50 [9]	AUC [10]	IC50 [10]
Hs766T (pancreas, adherent)	0.981	> 5 µM	0.982	> 5.12 µM	0.66	0.0405 µM	0.961	> 10 µM	0.84	> 50 µM	0.833	61.4 µM	0.981	> 20 µM	0.623	0.156 µM	0.969	> 10.2 µM	0.984	> 10.2 µM	0.984	> 16 µM
BICR10 (head and neck, adherent)	0.96	> 5 µM	0.983	> 5.12 µM	0.581	0.0216 µM	0.962	> 10 µM	0.647	8.55 µM	0.654	11.5 µM	0.939	> 20 µM	0.709	0.275 µM	0.967	> 10.2 µM	0.937	> 10.2 µM	0.985	> 16 µM
WIL2-NS (lymphoid neoplasm, suspension)	0.979	> 5 µM	0.96	> 5.12 µM	0.806	0.0801 µM	0.991	> 10 µM	0.323	1.11 µM	0.21	0.698 µM	0.891	15.6 µM	0.315	0.0218 µM	0.694	1.99 µM	0.678	1.81 µM	0.978	> 16 µM
NCI-H1876 (small cell lung carcinoma, adherent)	0.986	> 5 µM	0.983	> 5.12 µM	0.946	> 0.2 µM	0.881	> 10 µM	0.58	5.18 µM	0.622	8.72 µM	0.967	> 20 µM	0.823	0.612 µM	0.951	> 10.2 µM	0.827	6.33 µM	0.976	> 16 µM
RCM-1 (large intestine, adherent)	0.981	> 5 µM	0.98	> 5.12 µM	0.963	> 0.2 µM	0.927	> 10 µM	0.913	> 50 µM	0.383	1.77 µM	0.949	> 20 µM	0.606	0.134 µM	0.951	> 10.2 µM	0.981	> 10.2 µM	0.984	> 16 µM
TE-8 (oesophagus, adherent)	0.981	> 5 µM	0.984	> 5.12 µM	0.459	0.00957 µM	0.983	> 10 µM	0.576	5.13 µM	0.211	0.524 µM	0.948	> 20 µM	0.166	0.00558 µM	0.961	> 10.2 µM	0.867	> 10.2 µM	0.976	> 16 µM
OV-90 (ovary, adherent)	0.97	> 5 µM	0.974	> 5.12 µM	0.476	0.0106 µM	0.865	> 10 µM	0.903	> 50 µM	0.481	3.5 µM	0.885	> 20 µM	0.468	0.051 µM	0.939	> 10.2 µM	0.832	9.25 µM	0.86	> 16 µM
Daudi (Burkitt lymphoma, suspension)	0.97	> 5 µM	0.99	> 5.12 µM	0.977	> 0.2 µM	0.914	> 10 µM	0.792	19.5 µM	0.369	1.84 µM	0.815	9.26 µM	0.388	0.0328 µM	0.815	4.73 µM	0.643	1.51 µM	0.986	> 16 µM
PL-21 (acute myeloid leukaemia, suspension)	0.956	> 5 µM	0.814	3.4 µM	0.868	> 0.2 µM	0.79	5.29 µM	0.96	> 50 µM	0.508	4.23 µM	0.86	> 20 µM	0.527	0.0769 µM	0.951	> 10.2 µM	0.661	1.95 µM	0.981	> 16 µM
PFSK-1 (medulloblastoma, adherent)	0.975	> 5 µM	0.98	> 5.12 µM	0.277	0.00279 µM	0.712	2.58 µM	0.491	2.95 µM	0.782	28.4 µM	0.95	> 20 µM	0.69	0.227 µM	0.972	> 10.2 µM	0.941	> 10.2 µM	0.985	> 16 µM
SBC-1 (small cell lung carcinoma, suspension)	0.988	> 5 µM	0.989	> 5.12 µM	0.976	> 0.2 µM	0.979	> 10 µM	0.888	> 50 µM	0.954	> 64 µM	0.989	> 20 µM	0.642	0.155 µM	0.989	> 10.2 µM	0.978	> 10.2 µM	0.989	> 16 µM
RXF393 (kidney, adherent)	0.938	> 5 µM	0.963	> 5.12 µM	0.483	0.011 µM	0.933	> 10 µM	0.609	7.02 µM	0.816	54.6 µM	0.816	17 µM	0.525	0.0768 µM	0.955	> 10.2 µM	0.84	> 10.2 µM	0.978	> 16 µM
H2795 (mesothelioma, adherent)	0.984	> 5 µM	0.987	> 5.12 µM	0.795	0.0916 µM	0.903	> 10 µM	0.796	23.1 µM	0.661	11.2 µM	0.877	19.6 µM	0.777	0.406 µM	0.987	> 10.2 µM	0.578	1.04 µM	0.987	> 16 µM
SF126 (glioma, adherent)	0.984	> 5 µM	0.986	> 5.12 µM	0.245	0.00219 µM	0.954	> 10 µM	0.25	0.568 µM	0.478	3.47 µM	0.889	> 20 µM	0.542	0.084 µM	0.983	> 10.2 µM	0.913	> 10.2 µM	0.978	> 16 µM
TOV-21G (ovary, adherent)	0.97	> 5 µM	0.983	> 5.12 µM	0.44	0.00842 µM	0.983	> 10 µM	0.233	0.484 µM	0.886	> 64 µM	0.851	17.5 µM	0.832	0.736 µM	0.918	> 10.2 µM	0.842	8.12 µM	0.965	> 16 µM
ES1 (Ewing sarcoma, adherent)	0.978	> 5 µM	0.952	> 5.12 µM	0.142	0.000973 µM	0.709	2.4 µM	0.175	0.331 µM	0.067	< 0.25 µM	0.703	4.61 µM	0.359	0.0263 µM	0.826	6.09 µM	0.568	0.982 µM	0.872	14.8 µM
NCI-H1755 (lung adenocarcinoma, adherent)	0.951	> 5 µM	0.984	> 5.12 µM	0.497	0.0123 µM	0.893	> 10 µM	0.879	> 50 µM	0.409	2.16 µM	0.881	> 20 µM	0.648	0.176 µM	0.917	> 10.2 µM	0.79	5.39 µM	0.981	> 16 µM
D-392MG (glioma, adherent)	0.977	> 5 µM	0.981	> 5.12 µM	0.754	0.0899 µM	0.951	> 10 µM	0.684	12.4 µM	0.579	7.1 µM	0.912	> 20 µM	0.71	0.315 µM	0.931	> 10.2 µM	0.739	4.06 µM	0.976	> 16 µM
SK-MEL-2 (melanoma, adherent)	0.985	> 5 µM	0.982	> 5.12 µM	0.56	0.0183 µM	0.899	> 10 µM	0.57	4.89 µM	0.596	7.4 µM	0.939	> 20 µM	0.551	0.0886 µM	0.984	> 10.2 µM	0.916	> 10.2 µM	0.987	> 16 µM
D-263MG (glioma, adherent)	0.974	> 5 µM	0.977	> 5.12 µM	0.735	0.0688 µM	0.911	> 10 µM	0.574	5.2 µM	0.892	> 64 µM	0.983	> 20 µM	0.708	0.283 µM	0.966	> 10.2 µM	0.873	> 10.2 µM	0.983	> 16 µM
KURAMOCHI (ovary, adherent)	0.982	> 5 µM	0.984	> 5.12 µM	0.589	0.0229 µM	0.971	> 10 µM	0.793	27.1 µM	0.421	2.35 µM	0.911	> 20 µM	0.436	0.0416 µM	0.984	> 10.2 µM	0.974	> 10.2 µM	0.97	> 16 µM
HARA (lung squamous cell carcinoma, adherent)	0.981	> 5 µM	0.966	> 5.12 µM	0.509	0.0133 µM	0.937	> 10 µM	0.608	6.52 µM	0.281	0.852 µM	0.869	> 20 µM	0.638	0.165 µM	0.97	> 10.2 µM	0.765	4.35 µM	0.977	> 16 µM
JJN-3 (haematopoietic neoplasm, suspension)	0.974	> 5 µM	0.971	> 5.12 µM	0.486	0.0116 µM	0.961	> 10 µM	0.959	> 50 µM	0.863	39.8 µM	0.724	4.68 µM	0.395	0.035 µM	0.926	> 10.2 µM	0.808	4.17 µM	0.989	> 16 µM
